Source: article PMC4336329 (PLoS ONE, 2015)
Among all 310,000 compounds or so, about 14,000 (4.5%) showed an effect of 50% or more. The effect is printed as a negative number. The list shows a part of the results.

target: human ether-à-go-go-related gene (hERG) potassium channel (human, UniProt Q12809); experiment: primary screen, population patch clamp on CHO cells stably expressing hERG
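Further: peak tail current of the secondary pulse compared with the same well before compound.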

human ether-à-go-go-related gene (hERG) potassium channel, sequence (Q12809 whole entry, looked up): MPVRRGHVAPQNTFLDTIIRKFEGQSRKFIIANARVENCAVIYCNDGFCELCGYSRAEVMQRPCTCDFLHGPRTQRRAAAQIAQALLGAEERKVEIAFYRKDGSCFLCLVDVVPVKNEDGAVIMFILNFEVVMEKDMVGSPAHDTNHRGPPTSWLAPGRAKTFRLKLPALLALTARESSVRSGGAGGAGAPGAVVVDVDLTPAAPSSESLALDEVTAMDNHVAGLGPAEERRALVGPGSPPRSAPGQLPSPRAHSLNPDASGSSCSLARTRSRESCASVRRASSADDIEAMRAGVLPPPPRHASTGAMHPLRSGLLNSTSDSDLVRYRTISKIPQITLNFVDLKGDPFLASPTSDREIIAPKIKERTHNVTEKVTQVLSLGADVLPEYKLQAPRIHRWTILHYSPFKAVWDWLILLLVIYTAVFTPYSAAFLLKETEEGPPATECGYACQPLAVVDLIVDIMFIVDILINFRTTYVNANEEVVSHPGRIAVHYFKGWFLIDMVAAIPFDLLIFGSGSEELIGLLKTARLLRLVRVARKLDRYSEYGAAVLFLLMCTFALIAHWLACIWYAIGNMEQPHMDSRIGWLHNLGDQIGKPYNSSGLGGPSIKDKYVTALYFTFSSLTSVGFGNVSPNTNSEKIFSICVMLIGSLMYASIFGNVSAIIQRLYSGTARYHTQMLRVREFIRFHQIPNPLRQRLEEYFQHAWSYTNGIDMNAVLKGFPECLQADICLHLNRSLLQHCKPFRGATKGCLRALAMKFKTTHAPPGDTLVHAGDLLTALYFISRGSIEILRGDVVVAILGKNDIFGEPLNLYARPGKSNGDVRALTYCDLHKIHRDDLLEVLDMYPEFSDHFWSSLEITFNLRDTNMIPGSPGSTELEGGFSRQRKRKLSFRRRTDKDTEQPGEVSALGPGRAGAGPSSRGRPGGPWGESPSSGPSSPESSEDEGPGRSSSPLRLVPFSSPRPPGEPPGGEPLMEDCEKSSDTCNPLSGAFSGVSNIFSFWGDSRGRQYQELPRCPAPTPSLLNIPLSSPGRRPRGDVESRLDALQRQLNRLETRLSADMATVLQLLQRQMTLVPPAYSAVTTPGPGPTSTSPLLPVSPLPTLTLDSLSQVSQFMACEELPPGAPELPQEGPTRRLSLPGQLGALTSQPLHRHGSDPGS

Compound | hERG current change (%, negative = inhibition) at 10uM [%]
CCCCN1CCc2c([nH]c3ccccc23)C1=O | 6.99
O=C(Nc1ncc([N+](=O)[O-])s1)c1ccc2c(c1)OCO2 | 2.75
Cc1ccc(OCC(=O)NCc2n[nH]c(=O)c3ccccc23)cc1 | -38.5
N#Cc1c2n(c3c(=O)n(Cc4ccccc4Cl)cnc13)CCCC2 | -34.3
COc1ccc(NC(=O)C2CCN(C(=O)c3cccs3)CC2)cc1OC | -10.8
O=C(Nc1ccc2c(c1)OCO2)c1cccc2c1C(=O)N(Cc1cccnc1)C2 | -47
Cc1cc(C)cc(N(CC(=O)N2CCC(C)CC2)S(C)(=O)=O)c1 | -38.6
COC(=O)c1ccc2c(c1)C(C)(C)C(/C=C/c1ccc(O)cc1)=[N+]2C.[I-] | -70.9
CCCN(CCC)CCCNC(=O)Cn1cnc2sc(C)c(S(=O)(=O)N3CCCCC3)c2c1=O | 9.2
CC(=O)c1cnc(Nc2ccccc2)s1 | 4.3
COCCSc1nnc(-c2cnccn2)o1 | 15.6
Oc1cc2ccccc2cc1-c1n[nH]c(=S)o1 | 5.84
c1ccc2c(Nc3nc4c(s3)CCCC4)cccc2c1 | 2.23
Cc1nc2ccc(NC(=O)COc3ccccc3C)cc2s1 | 15.5
O=C(CSc1ccc(-c2ccc(-n3cccn3)cc2)nn1)Nc1ccc([N+](=O)[O-])cc1 | 11
CC1(C)CC(O)C(CCC(O)c2ccccc2)C(C)(C)N1 (stereo not shown) | 15.9
CC(=O)O/N=C(\N)Cc1ccc(-c2csnn2)cc1 | -0.358
O=C(COC(=O)COc1ccc(Cl)cc1)NC1CCCC1 | 7.09
C=COCCNC(=S)Nc1cccc(Cl)c1 | 4.4
Cc1cc(C)cc(NC(=S)NCCN2CCOCC2)c1 | -1.78
Cn1c(=O)[nH]c(=O)c2c1nc(Br)n2CCSc1ncccn1 | 7.96
CCCCNC(=O)c1ccc(C)c(NC(=O)C2=C(C)OCCS2)c1 | 10.7
O=C(NCC1CCN(C(=O)c2ccc([N+](=O)[O-])cc2)CC1)c1ccc([N+](=O)[O-])cc1 | -71.3

Compound | hERG current change (%, negative = inhibition) at 10uM [%]
CCOC(=O)N/N=C\C=C\c1ccco1 | 6.25
Cc1cccc(-c2nnc(SCc3nc4ccccc4[nH]3)n2Cc2ccco2)c1 | -48.8
Cc1nn(-c2ccccc2)c(-n2cccc2)c1C(=O)O | 17.3
CCCNC(=O)c1cnc(Sc2ncc(C(F)(F)F)cc2Cl)n1C | -6.91
COc1cc(NC(=O)CN2C(=O)COc3ccc(S(=O)(=O)N4CCCCC4)cc32)cc(OC)c1 | -4.81
COC(=O)c1cc(OC)c(OC)cc1NC(=O)Cn1nnc(-c2ccccc2Cl)n1 | -34.5
CC(=O)N(CCP(=O)(c1ccccc1)c1ccccc1)Cc1ccco1 | -4.55
O=C(NCCO)C(=O)NCC(c1ccc2c(c1)OCO2)N1CCN(c2ccc(F)cc2)CC1 (stereo not shown) | -0.454
Cc1ccc(NC(=O)CN2CCN(c3ccccn3)CC2)c(Cl)c1 | -1.57
CC1CCN(S(=O)(=O)c2ccc(Oc3ccc([N+](=O)[O-])cc3)cc2)CC1 | -21.7
CCN(CC(=O)NC(=O)NCc1ccccc1)CC(=O)Nc1cc(Cl)ccc1C | -21.9
COc1cccc(/C=C/C(=O)OC(C)C(=O)Nc2c(C)n(C)n(-c3ccccc3)c2=O)c1 (stereo not shown) | -7.55
CCCCn1c(N)c(N(CC)C(=O)CSc2nnc(-c3ccco3)n2CC)c(=O)[nH]c1=O | 8.75
Cc1cc(=O)c(C(=O)O)nn1-c1ccccc1F | 9.89
O=C(Cc1n[nH]c(=O)c2ccccc12)N/N=C/c1cc2c(cc1Cl)OCO2 | 26.5
CCOCCCn1cnc2c(c1=O)c1nc3ccccc3nc1n2-c1ccc(C)cc1 | -25.1
Cc1nc2ccc(S(=O)(=O)NCC(=O)N3CCc4ccccc4C3)cc2s1 | 0.862
CC(=O)c1ccc(N2CCN(C(=O)C3CCCN(c4ncnc5c4nc4n5CCCCC4)C3)CC2)cc1 (stereo not shown) | -75.4
Cc1noc(C)c1COC(=O)c1cc2ccccc2cc1O | 2.63
CCCN1CNC(=S)N(CC2CCCO2)C1 (stereo not shown) | 5.19
Cc1cccc(C(=O)N[C@H](C(=O)NCCc2ccc(S(N)(=O)=O)cc2)C(C)C)c1 | 0.0238
Clc1ccc(Nc2ccccc2)nn1 | 19.6
CCCc1nnc(SCC(=O)NC2CCCCC2)n1CCOC | 8.59

Compound | hERG current change (%, negative = inhibition) at 10uM [%]
CC(C)CCNC(=O)CN(C(=O)Cn1nnc(-c2ccc(F)cc2)n1)C1CCCC1 | 6.25
CCOC(=O)N1CCN(C(=O)CN(CC)S(=O)(=O)c2cc(C)ccc2OC)CC1 | -5.37
CCOC(=O)C1CCN(C(=O)Cn2nc(C)n3c(cc4cc(F)ccc43)c2=O)CC1 | -42.1
COc1cc(/C=N/NC(=O)C[n+]2ccccc2)cc(OC)c1OC.[Cl-] | 3.34
Cc1cn([C@@H](CCCCN)C(=O)NCCCCCCCCCCC(=O)N2CCNCC2)nn1 | -2.33
O=c1oc2ccccc2cc1-c1cn2cccnc2n1 | 1.91
CCCCOC(=O)C1C2C=CC3(CN(CCc4ccccc4)C(=O)C13)O2 (stereo not shown) | -3.74
COc1ccc(CN2CCCC(CNC(=O)c3ccc(F)cc3)C2)c(C)c1C (stereo not shown) | -75.5
COc1ccc(C(=O)NC2CC2)cc1OC1CCN(Cc2ccccc2O)CC1 | -102
CC(C)/C=C/C(=O)N1CCC(N2CCC(C(=O)N3CCOCC3)CC2)CC1 | 11
COC(=O)CCCCCNC(=S)Nc1ccc2[nH]c(=O)[nH]c2c1 | 10.7
CC(=O)O[C@@H]1[C@H]2[C@@H](C[C@@H](C)[C@@H]3C=CC(=O)[C@@]13C)OC(=O)[C@@H]2C | 0.325
CCOC(=O)c1cc(NC(=O)c2ccccc2)c(=O)n2c1oc1ccccc12 | 7.77
O=c1oc2ccccc2nc1/C=C(O)/C=C/c1ccc(F)cc1 | 12.8
C=CCn1c(O)c(N=Nc2ccccc2O)c2ccccc21 | 6.19
Cl.O=C(O)CC1NCCc2ccccc21 (stereo not shown) | 10.2
O=C(Nc1ccccc1N1CCCCC1)c1ccc(-c2cc(Cl)ccc2Cl)o1 | 21.5
N#CC1=C(N)OC2=C(C(=O)CCC2)C1c1cc2c(cc1Br)OCO2 (stereo not shown) | 9.92
O=C(Cc1ccccn1)c1ccc(F)cc1 | 10.1
COCCCNC(=S)NNC(=O)c1cc(C2CC2)nc2ccccc12 | 14.9
O=C(CCN1C(=O)c2cccc([N+](=O)[O-])c2C1=O)Nc1nccs1 | 13.6
CC(C)(C)NC(=O)C(c1ccncc1)N(C(=O)c1csnn1)C1CC1 (stereo not shown) | 6.94
COC(=O)C1=C(c2ccc(F)cc2F)C[C@@H]2CC[C@H]1N2C(=O)NC1CC1 | 8.92

Compound | hERG current change (%, negative = inhibition) at 10uM [%]
Clc1ccc(Oc2nc(Oc3ccc(Cl)cc3)nc(N3CCOCC3)n2)cc1 | -7.63
O=C(Oc1ccccc1C(=O)N1CCOCC1)c1ccc(Br)cc1 | -8.59
O=C(Cc1ccccc1)Nc1ccc(SC(F)F)cc1 | -29.7
S=c1[nH]ncn2c1cc1oc3ccccc3c12 | 15.9
Cc1cccc(-n2ccnc2CN2CCN(C(C)C)C(CCO)C2)c1 (stereo not shown) | -12.3
COc1cnc(-c2ccccc2)nc1Oc1ccc(C(C)(C)C)cc1 | -10.2
O=C(CS(=O)CC(=O)N(CC(=O)NC1CCCC1)C1CCCC1)Nc1ccc(F)cc1 (stereo not shown) | 9.61
Cc1cc(=O)n(CCO)c(O)c1C#N | 3.44
CCOc1cc(/C=N/NC(=O)C2CC2)ccc1OC(C)C | 15.9
O=C(CCS(=O)(=O)Cc1ccccc1F)NCCCN1CCCCC1 | 8.31
Fc1ccc(-c2ccc(NCCN3CCOCC3)nn2)cc1 | -21.2
CCOC(=O)c1csc(NC(=O)c2ccc(OCC)cc2)n1 | -14.9
CCOCC(O)CS(=O)(=O)c1ccccn1 (stereo not shown) | 11.9
COc1ccc2c(c1)SCC/C2=C\CN1C(=O)CCC1=O | 1.89
CC(C)(C)NC(=O)CSc1nc(N)cc(=O)[nH]1 | 21.8
Cn1cccc1C(=O)NCC(c1ccc(F)cc1)N1CCOCC1 (stereo not shown) | -5.3
COC1CCN(Cc2c(C(=O)N3CCc4ccccc4C3)nc3ccc(Cl)cn23)CC1 | -29.4
Cc1ccnc(NS(=O)(=O)c2ccc(NC(=O)c3cc(-c4ccc(Br)cc4)nc4ccccc34)cc2)n1 | 12.5
COc1cccc(NC(=O)c2ccc(NC(=O)C3CC(=O)OC34CCCCC4)cc2)c1 (stereo not shown) | 5.57
O=C1Nc2ccc(S(=O)(=O)N(CCO)CCO)c3cccc1c23 | 6.96
COc1ccccc1C(=O)NCCC(=O)N1CCCC(C)C1 (stereo not shown) | 18
CC1Cc2nc(SCC(=O)NCC3CCCO3)n(C)c(=O)c2S1 (stereo not shown) | 11.4
